Publication PMC4336329 (PLoS ONE, 2015)
The whole screen tested about 310,000 compounds, of which about 2,200 (0.71%) showed an effect of 50% or more. Effects have a minus sign here. The list shows a part of the results.

Molecular target: human ether-à-go-go-related gene (hERG) potassium channel (human, UniProt Q12809)
Experiment: primary screen, population patch clamp on CHO cells stably expressing hERG

Chain of human ether-à-go-go-related gene (hERG) potassium channel (Q12809 whole entry, looked up): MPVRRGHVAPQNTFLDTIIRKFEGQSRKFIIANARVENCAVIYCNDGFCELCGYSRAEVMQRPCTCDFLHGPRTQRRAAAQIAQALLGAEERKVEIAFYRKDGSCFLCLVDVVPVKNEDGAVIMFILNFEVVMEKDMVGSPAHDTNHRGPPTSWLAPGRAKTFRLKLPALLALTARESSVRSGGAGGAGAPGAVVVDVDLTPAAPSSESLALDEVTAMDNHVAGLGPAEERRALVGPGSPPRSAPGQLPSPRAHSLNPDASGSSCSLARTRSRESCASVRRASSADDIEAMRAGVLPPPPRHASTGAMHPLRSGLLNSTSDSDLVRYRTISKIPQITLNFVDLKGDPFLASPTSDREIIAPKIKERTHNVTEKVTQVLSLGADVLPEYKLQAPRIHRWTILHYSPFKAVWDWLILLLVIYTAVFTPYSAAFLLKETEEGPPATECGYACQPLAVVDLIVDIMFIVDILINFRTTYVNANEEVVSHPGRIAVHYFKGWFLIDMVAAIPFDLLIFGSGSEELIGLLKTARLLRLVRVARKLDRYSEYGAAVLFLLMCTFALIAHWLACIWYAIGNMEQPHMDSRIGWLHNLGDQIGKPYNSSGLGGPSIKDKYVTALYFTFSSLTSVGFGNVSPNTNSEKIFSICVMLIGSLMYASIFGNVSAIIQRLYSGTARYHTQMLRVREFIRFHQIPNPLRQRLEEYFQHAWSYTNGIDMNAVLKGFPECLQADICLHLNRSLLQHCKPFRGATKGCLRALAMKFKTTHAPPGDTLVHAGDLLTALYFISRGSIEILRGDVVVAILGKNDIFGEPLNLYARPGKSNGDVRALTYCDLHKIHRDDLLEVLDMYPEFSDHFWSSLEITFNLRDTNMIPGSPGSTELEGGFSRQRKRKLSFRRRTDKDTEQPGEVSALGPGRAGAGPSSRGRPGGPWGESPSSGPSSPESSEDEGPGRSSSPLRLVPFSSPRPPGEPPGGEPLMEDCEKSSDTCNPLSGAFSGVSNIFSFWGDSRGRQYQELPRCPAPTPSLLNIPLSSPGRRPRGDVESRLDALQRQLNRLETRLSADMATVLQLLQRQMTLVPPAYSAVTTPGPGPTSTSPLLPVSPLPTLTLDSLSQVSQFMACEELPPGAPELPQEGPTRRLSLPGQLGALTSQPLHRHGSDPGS

SMILES	hERG current change (%, negative = inhibition) at 1uM [%]
Clc1ccc2nc(COc3ccccc3)[nH]c2c1	14.4
CCC1Oc2ccccc2N(CC(=O)Nc2ccccc2OC)C1=O (stereo not drawn)	-1.77
NC(=O)c1ccc(Oc2ccc(Cl)cc2)c([N+](=O)[O-])c1	13.1
O=[N+]([O-])/C(C(=C(Cl)Cl)N1CCOCC1)=C1\NCCO1	13.8
Cc1cc(S(=O)(=O)Nc2c(C)ccc3nsnc23)ccc1F	0.447
COC(=O)c1ccc(N2CCN(CC(=O)c3ccc(C)cc3)CC2)c([N+](=O)[O-])c1	-16
C=CCn1cnc2scc(-c3ccccc3)c2c1=O	11.3
CCC1S/C(=C(\C#N)C(=O)NCc2ccco2)N(c2ccc(Br)cc2)C1=O (stereo not drawn)	11.3
C=Cn1c(C(=O)O)ccc1-c1ccc(OC)cc1	12.5
Cc1c(NC(=O)COC(=O)c2cc(-c3cccc4ccccc34)nc3ccccc23)c(=O)n(-c2ccccc2)n1C	14.5
CCOc1ccc(C(=O)Nc2ccc(NC(=O)c3ccco3)c(Cl)c2)cc1Cl	13.1
CC(=O)N1CCN(S(=O)(=O)c2ccc3c(c2)CCC(=O)N3)CC1	5.44
CCOC(=O)c1cccc(N2C(=O)C3C4C=CC(CC4)C3C2=O)c1 (stereo not drawn)	2.27
CC(=O)NC(CC(=O)Nc1ccc(S(=O)(=O)N2CCCCC2)cc1)c1ccccc1 (stereo not drawn)	4.06
Cl.Clc1ccc2[nH]c3c(c2c1)CCNC3	16.4
CCOC(=O)C1=C(COC(=O)Cc2ccc(Br)cc2)NC(=O)NC1C (stereo not drawn)	12.9
Cc1nn(C)c(Sc2ccccn2)c1[N+](=O)[O-]	8.59
O=C(Nc1nnc(SCc2ccc(F)cc2)s1)c1ccco1	13.6
Cc1nc2c3ccccc3nc(NNC(=O)CCC(=O)N3CCN(c4ccc(F)cc4)CC3)n2n1	-3.88

SMILES	hERG current change (%, negative = inhibition) at 1uM [%]
COc1ccc(C2=NN(c3ccccc3)C(=O)/C2=C\c2ccc(O)c(OC)c2)cc1	12.5
CC(C)(C)c1ccc(/C=C(\C#N)C(=O)NC2CC2)cc1	12.8
C/C(=N/OCc1ccc(Br)cc1)c1ccccn1	6.84
CN1CCC(N(C)C(=O)NC2CCCCC2)CC1	10.9
O=C(CSc1nnc(NC(=O)C2CC2)s1)NCc1ccc(F)cc1	29.1
COc1cccc(Cn2cc(-c3cccc(C(F)(F)F)c3)nn2)c1	13.8
O=c1[nH]c(CNCc2cccnc2)nc2ccccc12	16.9
CCCn1c(C)cc(C)c(C#N)c1=O	14.8
COCCN(C(=O)COC(=O)C1(c2ccccc2)CC1)c1c(N)n(CC(C)C)c(=O)[nH]c1=O	4.18
Cc1ccc(-c2noc(CCC(=O)Nc3ccccc3N3CCN(C)CC3)n2)cc1	-1.05
Cc1cc2c(ncn2C(C)C)c(NS(=O)(=O)c2ccc(F)cc2)c1C	10
COCCn1c(-c2ccccc2)cnc1SCC(=O)Nc1cccc2ccccc12	-0.771
Cc1cc(N2CCN(Cc3ccc4c(c3)OCO4)CC2)n2ncnc2n1	6.24
Cc1ccc(C(=O)NN2C(=O)/C(=C/c3cccn3C)SC2=S)cc1	6.51
N#CC1(C#N)C(c2ccccc2)OC23CCCCC2C1(C#N)C(=N)O3 (stereo not drawn)	0.982
O=C([O-])/C=C1\CCCc2ccccc2C1O.[Na+] (stereo not drawn)	16.4
O=C(CSc1nccc(-c2cccs2)n1)Nc1ccc(F)c(Cl)c1	7.91
CCC(C)(C)c1nnc(NC(=O)C2CCN(C(=O)c3ccco3)CC2)s1	11.4
Cc1nnc(SCC(=O)N2CC(=O)Nc3ccccc32)n1C	17

SMILES	hERG current change (%, negative = inhibition) at 1uM [%]
CCSCCOC(=O)C1=C(C)NC(=O)NC1c1ccccc1 (stereo not drawn)	5.88
COC(=O)C1=C(c2ccc(C(C)=O)cc2)C[C@@H]2CC[C@H]1N2C(=O)NCc1ccco1	-4.1
COc1cccc(CN(C)CC(=O)Nc2c(C)cccc2C(C)C)c1	5.62
O=C1CC(Cc2ccccc2)C(=O)N1c1ccc(Cl)cn1 (stereo not drawn)	3.14
Cc1ccc(-n2c(N)c(S(=O)(=O)c3ccccc3)c3nc4ccccc4nc32)cc1	-13.4
COC(=O)c1sc(NC(=O)C2CCCCC2C(=O)O)c(C(=O)OC)c1C (stereo not drawn)	18.1
CCO[C@H]1OC(C(=O)NCc2ccccc2)=C[C@@H](C2CCCCC2)[C@@H]1CCCO	9.95
COc1cccc(C(=O)N2CCCN(C)CC2)c1OC	7.14
Cc1ccc(OCCC(=O)OCC(=O)NC2CCCC2)cc1	6.49
CSc1ccc(S(=O)(=O)NCC(=O)OCCOc2ccccc2)cc1[N+](=O)[O-]	8.29
Cc1ccccc1OCc1n(CC(=O)OC2CC(C)CCC2C(C)C)c2ccccc2[n+]1C.[Cl-] (stereo not drawn)	-1.86
Cc1ccc(CN2CCN(Cc3ccccc3)CC2)cc1	-2.6
O=C(CSCCc1ccccn1)Nc1cccnc1	7.58
COc1ccccc1CNC(=O)/C(C#N)=C/c1ccc(OC)c(OC)c1OC	11.7
COc1ccc(CCNC(=O)c2c(O)c3c([nH]c2=O)CCCC3)cc1	8.46
C=C(C)c1cccc(C(C)(C)NC(=O)N2CCN(c3ccccn3)CC2)c1	1.68
CCN(CC)c1ccc(/C=N/N2CC(=O)NC2=S)cc1	12.8
Clc1ccc(CCNc2nc3ccccc3n3nnnc23)cc1	-7.21
Cl.O=C(O)c1ccc(Nc2c3ccccc3nc3ccccc23)cc1	10.9
